From the RNAGym collection of RNA variant scans (doi:10.7554/elife.90254)
The source gives no read counts; variants with many changes may rest on few reads.

B1: OR4K15 (parent)
chain: GUUAACGGUCAUAGGCCAUGGAAACUAGGAGCACCAUUUCGCUGCCAGUGAAGAAAUGAACAAAGAAAAUCUGGGCCAGGCAGGCAUCAAAAGAAAUAGUCUUGCGCUCAACCAGAAAGUCUGUAAUCAUUUUAAGGGUA

Variants of: B1
Experiment: self-cleavage, relative activity (ratio to wild type); higher = more cleavage; in vitro, sequencing; the parent is a self-cleaving ribozyme

Variant | self-cleavage
C81U U100C A114U | 0.02
A78G A96G U103C U130C | 0.07
U72C U87C C121A U133C | 0.89
C77A C128A U133C | 0.84
G75A U100C A117G U120A U130C U131C A140U | 0.1
G79A U102C U120C | 0.07
A82G U103A U120A U127C U131C U139C | 0.11
A86G A95G A114G A126G | 0.46
A82G A111G A129U | 0.02
G83A A117G U133C | 1.79
C81U A96G U108G | 0.02
A78G U100C A125G A129G G138U | 0.05
A82G U103C A117G | 2.26
G84A A95G A117G | 2.89
A78G U108A A116G U122C | 0
U72C U108C U131C | 0
A82U A111G U130C | 0.01
A78U A118G A125G A129G | 0
A78G A82U A111U U133A | 0.03
A82U A118G U132C | 0.02
A78G A118G U127C | 0.11
C81A A96U U103C | 0.12
U72G A94G U97C U133C | 0.1
G74A U102C U139A | 0.24

Variant | self-cleavage
U72C U100C A117G | 0.12
G75C A125G A134G | 0.01
A78G A118G A135U | 0.17
A78G U120C A126G | 0.21
A78G G83A U103C A116U | 0.03
A86G A98G G106A | 0.01
A78G A125G U130C | 0.06
A78U A82G G137A | 0.08
A86U A110G G136U | 0.13
A78U A86U G99A | 0.13
A78G G83A U108A | 0.04
A86U A95G U108A | 0.05
A78U A111G U130C | 0.01
A78G U87A A89G U102C | 0.31
A86G U87A A91G U127C U130C | 0.07
A78C A94G U108C | 0.01
A82U U127C A129G | 0.04
G80A A94U U102C U132A | 0.66
A78G U100C C113U | 0.08
G74A A78G A126G | 0.15
A86U A90G A135G | 1.53
A86G A110U A118G | 0.79
A78G U108C A117G | 0
U72C C121A A140G | 0.6

Variant | self-cleavage
G84U A126U U127C | 0.05
A82G U97A A98G | 0.21
A82G A90G A94G A117G | 0.09
G73A A96G U103A | 0.09
A86G U87C U100A G137A | 0.17
U72C A92U A126G A129G | 0.21
A86G A96G U130C | 1.08
A78U A82G U124A | 0.09
A78G A89G U100C | 0.44
A78G A86G U87C A118U | 0.05
A82G U87A A126C | 0.46
C85A U87C U103A A117G G123U | 0.2
A78G A114G A134G | 0.13
A82G A86U A110G | 0.12
C85U A86G A94G U108A | 0.01
U72C A96U U103C A116C U132C | 0
A78U C107A A117G U131C | 0
A82U A117G U132C | 0.03
U72C U100C U124A | 0.46
A86G A90G A96G A126G | 0.61
A82U U127C U133C A134G | 0.1
A86G U103C A114C | 0.02
A86U U87C U122A U131C U132C | 0.7
A86C U120C U127C | 0.18

Variant | self-cleavage
C77U A91G A98G | 0.7
A78U U103C U122C U132C | 0.09
A78G A86G U132A | 0.16
A82U A118G U120A | 0.13
U72C A78U A91G | 0.06
A78G A98G U108C A110G | 0.02
G74A G115U U139A | 0.04
A86G A89G A90G A126G | 1.18
A78G U100C A110G | 0.06
A82G A116G A117G U133C | 0.12
U72C U108A A126G G136U | 0.03
G73A U100C U102C U103A A129G | 0
A82U A91G A117G | 0.12
A78U A110G U122C | 0.04
A78G A89G C109U | 0.08
A78U U100C A111G A114G | 0.01
U72C A129G G136U | 0.06
A86G A91G A117G | 0.11
U72C U87C A91U C101G A114G | 0.45
C85U A90G U122C | 0.72
G80U A91C A110G | 0.03
A86G A89G A114U | 0.05
A82G A96G A118G U124C U139C | 0.48
G80C U108C A114U U122C | 0.04

Variant | self-cleavage
A82U U87C A90C | 0.15
A78G A91G U122C | 0.15
G80U A96G G123A A125G | 0.03
A78U A82G A126G | 0.14
G75A G79C A95G A140G | 0.02
A78G A96G U103A | 0.08
A78U U122A U139C | 0.27
A78G A116G U122A | 0.12
A86G A94G A129G | 0.73
A78G U108C A117G U120C U124C | 0
C77U C109G A110U | 0.02
A82G A117G U120C | 0.25
A82G U87C A96U G137U | 0.43
G74U G84A A117G | 0.17
A82U U100C A116U | 0.05
C76U A96U A118G U120C U133C | 0.03
A78U A82G A111G | 0.05
U72C A82U A114U | 0
C85A A94C A134G | 1.61
G84U A117G A140G | 0.11
U72C U100C A110G | 0.07
A78G U87C A134G | 0.16
C77U A78G A116G U131C | 0.03
A78G G104A U132C | 0.04

Variant | self-cleavage
A82U A96U C105U A111G A135C | 0
G73A A92G A135U | 0.14
C76G A78C U87C U127C | 0.06
A82G G83A A125U | 0.37
G83U A92U U124C | 0.37
A86U A94G U102C | 0.52
A82G U108C A111U | 0.01
A82C U87C A140G | 0.19
A86G A89G U139C | 0.81
A86G U100C U124C U133A | 2.54
U72C A82U C112U A116G A117G | 0
A78U U122C U132G | 0.05
A78U A90G A98G | 0.04
A78G A95G U132C | 0.15
G74A A86G U108C A118G | 0
A78G A94U U103C U132G | 0.05
G74C U100C U120C | 0.22
G74U A118G U131C | 0.02
A78U A96G U108A A117G | 0.01
U72C A96G U108C | 0
G79A A116G U139A | 0.09
G74A C109U A135G | 0.08
A78C U97C A117G | 0.22
A82G C109U U133A | 0.17

Variant | self-cleavage
C85U A86G C121G | 0.45
A82G U102A A111G | 0.03
A78G A91G U130A | 0.06
A78U A114C A126G | 0.01
G74A A86G A114G | 0.04
U72C A94G C112A | 0.03
A78G U127C U131C A135G | 0.11
G79A A114U U122C | 0
U72C A98U U122C | 0.13
A86G U120C A125G | 0.13
A82G A94G A126G | 0.17
A78U A94G C113U | 0.03
A78G A94G A126G | 0.11
G73U G79A A86U A94G | 0.08
U72C A86G C109U | 0.06
A82G A116G G138U | 0.42
A78G A92G G106A | 0.02
C85U A90G A91G U100A A110G A129G | 0
U72C C76U A116U | 0.04
A86G A95G U131C | 1.67
G74A A86G U97A A116G | 0.11
A86G A92G A96G U100C | 1.99
U72C U87C U130C | 0.07
